Data from patent EP4631959A2, “NOVEL MINIGASTRIN-DERIVED CHOLECYSTOKININ 2 RECEPTOR BINDING MOLECULES FOR IMAGING AND TARGETED RADIOTHERAPY” (priority 2022, dated 2024).
Part of at least one peptide drawing is inferred or uncertain, most often the ends. Non-standard residues stand in square brackets, D forms with d. Residues, ends and D or L forms follow the SMILES beside them. *: point of attachment. DOTA = O=C(O)CN1CCN(CC(=O)O)CCN(CC(=O)*)CCN(CC(=O)O)CC1; 1Nal = N[C@@H](Cc1cccc2ccccc12)C(=O)O; NMeNle = CCCC[C@H](NC)C(=O)O

Test: n-Octanol-PBS distribution coefficient (logD7.4)
Format: physicochemical
Conditions: for logD7.4 (n ≥ 5), ^177Lu-labeled: pH = 7.4, ^177Lu-labeled
Method: Approximately 1 MBq of the labeled tracer was dissolved in 1 mL of a 1/1 mixture (v/v) of phosphate buffered saline (PBS, pH = 7.4) and n-octanol in an Eppendorf tube (1.5 mL). After vigorous mixing of the suspension for 3 min at rt, the vial was centrifuged at 9,000 rpm for 5 min (Biofuge 15, Heraeus Sepatech, Osterode, Germany) and 200 µL aliquots of both layers were measured in a γ-counter. The experiment was repeated at least five times.

SMILES	logD7.4 (n ≥ 5), ^177Lu-labeled	logD7.4 (n ≥ 5), ^64Cu-labeled (pH = 7.4, ^64Cu-labeled)	logD7.4 (n ≥ 5), ^67Ga-labeled (pH = 7.4, ^67Ga-labeled)
CCCC[C@@H](C(=O)N[C@@H](CC(=O)O)C(=O)N[C@@H](Cc1cccc2ccccc12)C(N)=O)N(C)C(=O)[C@H](Cc1c[nH]c2ccccc12)NC(=O)CNC(=O)CNC(=O)CNC(=O)CNC(=O)CN1CCN(CC(=O)O)CCN(CC(=O)O)CCN(CC(=O)O)CC1 [DOTA-CCK-55, DOTA-(Gly)4-Trp-(N-Me)Nle-Asp-1-Nal-NH2] ({DOTA}-GGGGW[NMeNle]D[1Nal]-NH2)	−2.09 ± 0.07		
CCCC[C@@H](C(=O)N[C@@H](CC(=O)O)C(=O)N[C@@H](Cc1cccc2ccccc12)C(N)=O)N(C)C(=O)[C@H](Cc1c[nH]c2ccccc12)NC(=O)CNC(=O)[C@H](Cc1ccc(O)cc1)NC(=O)[C@H](C)NC(=O)[C@@H](CCC(=O)O)NC(=O)CN1CCN(CC(=O)O)CCN(CC(=O)O)CCN(CC(=O)O)CC1 [DOTA-MGS5, DOTA-glu^6-Ala^7-Tyr^8-Gly^9-Trp^10-(N-Me)Nle^11-Asp^12-1-Nal^13-NH2, reference compound]	−2.21 ± 0.08	−2.81 ± 0.01	−2.44 ± 0.12
CCCC[C@@H](C(=O)N[C@@H](CC(=O)O)C(=O)N[C@@H](Cc1cccc2ccccc12)C(N)=O)N(C)C(=O)[C@H](Cc1c[nH]c2ccccc12)NC(=O)CNC(=O)CNC(=O)[C@H](C)NC(=O)CNC(=O)CN1CCN(CC(=O)O)CCN(CC(=O)O)CCN(CC(=O)O)CC1 [DOTA-CCK-61, DOTA-Gly-Ala-(Gly)2-Trp-(N-Me)Nle-Asp-1-Nal-NH2] ({DOTA}-GAGGW[NMeNle]D[1Nal]-NH2)	−1.94 ± 0.06		
